Reference: publication PMC4336329 (PLoS ONE, 2015)
The whole screen tested about 310,000 compounds, of which about 2,200 (0.71%) showed an effect of 50% or more. Effects have a minus sign here. The list shows a part of the results.

The molecules below were run against human ether-à-go-go-related gene (hERG) potassium channel (human, UniProt Q12809) (assay: primary screen, population patch clamp on CHO cells stably expressing hERG).
human ether-à-go-go-related gene (hERG) potassium channel, sequence (Q12809 whole entry, looked up): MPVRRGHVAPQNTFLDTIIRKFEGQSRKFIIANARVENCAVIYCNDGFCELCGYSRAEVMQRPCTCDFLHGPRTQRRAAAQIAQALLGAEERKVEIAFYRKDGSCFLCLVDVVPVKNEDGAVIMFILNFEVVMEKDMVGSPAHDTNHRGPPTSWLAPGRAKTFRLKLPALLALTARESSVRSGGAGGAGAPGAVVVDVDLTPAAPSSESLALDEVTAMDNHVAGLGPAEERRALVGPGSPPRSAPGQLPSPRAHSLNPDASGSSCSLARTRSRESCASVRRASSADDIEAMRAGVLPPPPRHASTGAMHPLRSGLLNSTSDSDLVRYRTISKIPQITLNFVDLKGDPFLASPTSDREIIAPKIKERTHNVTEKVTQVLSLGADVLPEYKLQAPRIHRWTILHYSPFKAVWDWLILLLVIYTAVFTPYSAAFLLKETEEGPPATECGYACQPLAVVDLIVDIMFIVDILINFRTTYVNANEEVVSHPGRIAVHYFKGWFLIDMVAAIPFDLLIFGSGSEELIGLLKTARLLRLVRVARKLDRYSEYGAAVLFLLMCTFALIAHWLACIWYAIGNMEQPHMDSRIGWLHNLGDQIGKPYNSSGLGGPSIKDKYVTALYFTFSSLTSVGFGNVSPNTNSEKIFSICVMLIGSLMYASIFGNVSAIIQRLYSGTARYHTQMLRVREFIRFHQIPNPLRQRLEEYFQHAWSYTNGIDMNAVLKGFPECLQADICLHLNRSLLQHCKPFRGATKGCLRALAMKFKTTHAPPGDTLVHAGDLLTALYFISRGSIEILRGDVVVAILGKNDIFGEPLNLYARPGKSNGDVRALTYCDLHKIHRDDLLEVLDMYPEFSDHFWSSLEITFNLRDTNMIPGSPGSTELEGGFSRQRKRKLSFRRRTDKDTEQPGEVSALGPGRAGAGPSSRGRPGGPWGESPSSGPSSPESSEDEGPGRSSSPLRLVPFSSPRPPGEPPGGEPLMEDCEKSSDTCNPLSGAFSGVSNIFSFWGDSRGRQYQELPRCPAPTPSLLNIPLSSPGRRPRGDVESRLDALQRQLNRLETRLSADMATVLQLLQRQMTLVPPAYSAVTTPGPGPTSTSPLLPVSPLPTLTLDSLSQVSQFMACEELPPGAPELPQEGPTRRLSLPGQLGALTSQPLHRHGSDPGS

| SMILES | hERG current change (%, negative = inhibition) at 1uM |
| --- | --- |
| CC(C)CC(CO)N1CCN(C(=O)c2ccccc2)CCC1=O (centres unmarked) | 5.34% |
| CCCCOc1ccc(-c2ncc(C(=O)OCC)c(N)n2)cc1 | 12.3% |
| Cc1cccc(Cc2nnc(CCC(=O)NCc3cnc4ccccn34)o2)c1 | 11.9% |
| CN1C(=O)NC(NC(=O)c2cccs2)(C(F)(F)F)C1=O (centres unmarked) | 9.41% |
| CN(C1CC(C)(C)N(O)C(C)(C)C1)S(=O)(=O)CC12CCC(CC1=O)C2(C)C.Cl (centres unmarked) | 11.1% |
| Cc1nc(CN(C)Cc2nc(Cc3ccccc3Cl)no2)cs1 | 4.14% |
| c1ccc(CSc2ncnc3c2oc2ccccc23)cc1 | 9.56% |
| CCCCCCSc1ccc([C@@H]2[C@H]3C(=O)N(C)C(=O)[C@H]3[C@]3(C(=O)OC)CCCCN23)cc1OC.O=C(O)C(F)(F)F | 16.1% |
| CCCCCC(=O)Nc1ccc(S(=O)(=O)NC2=NCCCCC2)cc1 | 15.3% |
| CN(C)/C=C/C(=O)Oc1ccc(Cl)cc1Cl | 5.3% |
| O=C(NCc1ccc2c(c1)OCO2)C1CCCN1C(=O)Nc1ccc(Cl)cc1 (centres unmarked) | 0.573% |
| C=CCOC(=O)C1=C(C)N=C2SCCC(=O)N2C1c1ccc(OC(=O)c2ccco2)cc1 (centres unmarked) | -6.27% |
| Cc1nc(-c2cn[nH]c2)c2cc(C)oc2n1 | 14.9% |
| COc1ccc(/C=C2/C(=O)N(c3ccccc3)N=C2C)cc1Br | 15.4% |
| COC(=O)c1cn(NC(=O)COc2ccc(Cl)cc2)c(=O)c2ccccc12 | 8.5% |
| Cc1cccc(C)c1N1CCN(C(=O)N2CCCCC2)CC1 | 11.3% |
| COC(=O)c1cccc(NC(=O)CSc2nnc(COc3cccc(C)c3)n2C)c1 | 5.05% |
| Cn1c(=O)[nH]c2ccc([N+](=O)[O-])nc21 | 15.9% |
| CCN1CC2C3CCC(C)(O3)C2C1 (centres unmarked) | -37% |
| CCOC(=O)c1c(C)[nH]c(C)c1C(=O)CSc1nc2ccccc2c(=O)n1-c1ccc(C)cc1 | 2.57% |
| S=C1NC2(CCCCC2)Cc2ccccc21 | 11.6% |
| NS(=O)(=O)c1ccc(Nc2nc3ccccc3nc2NS(=O)(=O)c2cccc([N+](=O)[O-])c2)cc1 | 5.32% |
| CC(=O)c1cc2c(cc1N(C(=O)Cn1nnc3ccccc31)C(C(=O)NCCC(C)C)c1cccnc1)OCO2 (centres unmarked) | 6.08% |

| SMILES | hERG current change (%, negative = inhibition) at 1uM |
| --- | --- |
| COc1ccc(N/C=C/C(=O)c2ccc(OC)c(OC)c2)cc1 | 5.01% |
| CCCC(=Nc1ccccc1OC)C1=C(O)CC(c2ccccc2)CC1=O (centres unmarked) | 9.36% |
| C=CCN(CC(=O)NCc1ccc(F)cc1)C(=O)c1csnn1 | -7.8% |
| Clc1ccc(CNc2ncccn2)cc1 | 9.82% |
| Cc1ccc(C(=O)Nc2ccc3[nH]c(=O)[nH]c3c2)c(C)c1 | 12.5% |
| CN(C(=O)CSc1ncnc2scc(-c3ccccc3)c12)C1CCS(=O)(=O)C1 (centres unmarked) | 8.1% |
| O=C(NCc1ccncc1)Nc1ccccc1F | 13.5% |
| CC(Nc1n[nH]c(=O)[nH]c1=O)C(=O)N/N=C/c1cccs1 (centres unmarked) | 17.6% |
| Cc1cnc(NC(=O)c2cc3ccccc3o2)s1 | 15.1% |
| CCc1cccc(NC(=O)CSCc2nc3sc(C)c(C)c3c(=O)[nH]2)c1 | 22.7% |
| CCOC(=O)Cn1cc(C=O)c2ccccc21 | 5.97% |
| CCOC(=O)c1ccc(NC(=O)Oc2ccccc2)cc1 | 1.96% |
| CC(c1c(O)c2ccccc2[nH]c1=O)C1(C)CCC(O)C(C)(C)O1 (centres unmarked) | -0.766% |
| CCC(=O)N1CCc2cc(S(=O)(=O)CCC(=O)NCc3cccs3)ccc21 | 6.49% |
| Nc1ccc(C23CC4CC(CC(O)(C4)C2)C3)cc1 | 2.73% |
| O=C(CCN1C(=O)c2ccccc2C1=O)C1=NN[C@@H]2C(=O)N(c3cccc(F)c3)C(=O)[C@H]12 | 17.5% |
| Cc1ccc(NC(=O)c2cc(-c3cccc(O)c3)on2)cc1C | 11.2% |
| O=C(CC1CCCCC1)NC1CCCC1 | 0.54% |
| CC(=O)NC12CC3CC(C1)CC(C(=O)N(C)CC(=O)Nc1ccc(F)c(F)c1F)(C3)C2 | -1.16% |
| O=[N+]([O-])/C=C/c1cn(Cc2ccccc2)c2ccccc12 | 5.14% |
| Cc1ccc(N=CC2=C(O)CC(c3ccco3)CC2=O)cc1 (centres unmarked) | 0.684% |
| Cc1ccc(-c2nc(SCC(=O)NCCN3C(=O)CSC3=O)[nH]c2-c2ccc(C)cc2)cc1 | 4.85% |
| COc1ccc(Br)cc1CN1CCSCC1 | 16.5% |

| SMILES | hERG current change (%, negative = inhibition) at 1uM |
| --- | --- |
| CCn1ccnc1CN(C)Cc1nc(Cc2cccc(C(F)(F)F)c2)no1 | -13% |
| CC1CCCCN1CC(=O)c1ccc2cc[nH]c2c1 (centres unmarked) | 14.9% |
| CC(C)c1c(Cl)c(O)c(-c2ccccc2)c(=O)n1-c1ccc(F)cc1 | 16% |
| Cc1cc(NC(=O)c2ccc(COc3ccccc3Cl)o2)no1 | 11.6% |
| CCN1CCCC1CNC(=O)c1ccc(N2CCOCC2)c(NS(=O)(=O)c2ccc(OC)cc2)c1 (centres unmarked) | 2.19% |
| CCOC(=O)C1=C2NC(=O)c3ccccc3N2C(=O)C1 | -1.14% |
| O=C(NCc1ccc2c(c1)OCO2)C1CC(=O)N(c2ccc(O)cc2)C1 (centres unmarked) | 5.85% |
| C/C(=C\c1ccccc1)CN1CCC(C(=O)N2CCCCC2)CC1.O=C(O)C(=O)O | -5.87% |
| CCC(CC)NC(=O)c1cccc(Oc2ccccc2)c1 | 6.84% |
| CC(C)Nc1nc(NC(C)C)nc(SCC(N)=O)n1 | 3.45% |
| O=C(NCc1cccnc1)c1nc(-c2ccccc2)n(-c2ccccc2)n1 | 9.32% |
| O=C(COC(=O)C1=Cc2ccccc2OC1)NCc1ccco1 | 17.8% |
| O=C(CNc1ccc2c(c1)OCO2)N/N=C\c1ccccc1Cl | 12% |
| CCOc1cccc2cc(C(C)=O)oc12 | 16.3% |
| CC(=O)c1nnn(-c2cccc(C#N)c2)c1C | 9.82% |
| Cc1ccc(S(=O)(=O)Nc2nccs2)cc1[N+](=O)[O-] | 16.4% |
| CN1CCC(Oc2ccc(Sc3ccccc3)cc2)CC1.Cl | -4.48% |
| COc1ccc(CNS(=O)(=O)c2ccc3c(c2)CC(C)N3C(=O)C2CC2)cc1 (centres unmarked) | 15.1% |
| CC(NC(=O)c1ccc(F)cc1)C1CC2CCC1C2 (centres unmarked) | 5.29% |
| COC(=O)c1sccc1S(=O)(=O)Nc1ccc(N2CCCCC2)cc1 | 10.2% |
| CCOC(=O)C1(Cc2ccccc2C)CCCN(Cc2cc(OC)c(O)c(OC)c2)C1 (centres unmarked) | -2.23% |
| COc1ccc(-n2nnc3c(SC(C(C)=O)C(=O)N(C)C)ncnc32)cc1 (centres unmarked) | 10.2% |
| O=C(CN1CCC(n2nnc3cc(F)ccc32)CC1)N1CCc2ccccc2C1 | -24.7% |

| SMILES | hERG current change (%, negative = inhibition) at 1uM |
| --- | --- |
| CCCN1CCN(CCCNC(=O)Cn2nc(-c3ccc(Cl)cc3)ccc2=O)CC1 | -25% |
| Cc1cc(-c2ccc(/C=N/n3cnnc3)o2)c([N+](=O)[O-])cc1C | 9.45% |
| CC(=O)NO | 10.3% |
| O=C(O)c1ccc(-c2ccc(Cl)cc2Cl)o1 | -5.82% |
| Cn1c(=O)n(C)c2cc(NC(=O)COc3ccc(F)cc3F)ccc21 | 8.63% |
| O=S(=O)(Nc1ncnc2sc3c(c12)CCC3)c1ccc(Cl)s1 | 12.5% |
| CN1CCC(N(C)S(=O)(=O)c2ccc(NC(=O)COc3ccc(F)cc3)cc2)CC1 | 3.82% |
| Cc1cccc(C)c1OC1(c2ccccc2)OC(=O)c2ccccc21 (centres unmarked) | 5.98% |
| O=C(c1ccco1)c1cn(Cc2ccccc2)c2ccccc12 | 8.53% |
| O=C(O)c1ccccc1-n1ncc2c1/C(=C/c1ccc(Cl)cc1)CC2 | 22.6% |
| CN1C(=O)C(C)(C)N(C(=O)c2cccc([N+](=O)[O-])c2)c2ccccc21 | 10.8% |
| Cc1ccc(C(=O)N2c3ccccc3NC(=O)C2C)cc1 (centres unmarked) | 5.63% |
| Cc1cc(=O)n2[nH]nnc2n1 | -16.2% |
| CC1CCC2(CC1)NC(=O)N(CC(=O)N1CCN(S(=O)(=O)c3ccccc3)CC1)C2=O (centres unmarked) | 4.72% |
| Cc1ccc(C2(c3ccc(C)cc3)CC2C(=O)NC(C)C)cc1 (centres unmarked) | 13.8% |
| O=C(COc1ncnc2ccccc12)Nc1cc(S(=O)(=O)N2CCOCC2)ccc1Cl | 7.41% |
| CCn1c(SCC(=O)NC2CCCCC2)nnc1-c1cccs1 | 6.6% |
| Cc1ccc(S(=O)(=O)Nc2nc(C)cc(N/N=C/c3ccc(O)cc3)n2)cc1 | 14.1% |
| Cc1c(C(=O)OCCOC(C)C)[nH]c2c1C(=O)CC(c1ccco1)C2 (centres unmarked) | 1.06% |
| c1cncc(-c2noc(-c3ccc4ccccc4c3)n2)c1 | 16.1% |
| c1ccc2c(SCc3cn4ccccc4n3)nncc2c1 | -0.835% |
| CN(Cc1nc2c(s1)CCCC2)C(=O)CCc1nnc(-c2ccc3c(c2)OCO3)o1 | 9.88% |
| COc1ccc(S(=O)(=O)N2CCOC2CNC(=O)C(=O)NCCc2ccccc2)cc1 (centres unmarked) | 4.01% |
